Measurements reported in paper PMC9911399, “Two distinct binding modes provide the RNA-binding protein RbFox with extraordinary sequence specificity”.
Residue numbers refer to the chain shown, from its start. Some of the results follow.

B1: GAGUAAC (DNA:RNA)
RNA: GGGAGACCGGAAUUCAGAUUGUCCGAGUAACUUAAAUCCCGUCGUAGCCACCA
DNA 1: CAATCTGAATTCCGGTCTCCC
DNA 2: TGGTGGCTACGACGGGATT
B2: AUAGUCA (DNA:RNA)
RNA: GGGAGACCGGAAUUCAGAUUGUCCAUAGUCAUUAAAUCCCGUCGUAGCCACCA
DNA 1: CAATCTGAATTCCGGTCTCCC
DNA 2: TGGTGGCTACGACGGGATT
B3: AGACUAU (DNA:RNA)
RNA: B2 RNA with U26G, G28C, C30A, A31U
DNA 1: CAATCTGAATTCCGGTCTCCC
DNA 2: TGGTGGCTACGACGGGATT
B4: UUACCGA (DNA:RNA)
RNA: B2 RNA with A25U, G28C, U29C, C30G
DNA 1: CAATCTGAATTCCGGTCTCCC
DNA 2: TGGTGGCTACGACGGGATT
B5: GUCCUUU (DNA:RNA)
RNA: B2 RNA with A25G, A27C, G28C, C30U, A31U
DNA 1: CAATCTGAATTCCGGTCTCCC
DNA 2: TGGTGGCTACGACGGGATT
B6: AUCAAAA (DNA:RNA)
RNA: B2 RNA with A27C, G28A, U29A, C30A
DNA 1: CAATCTGAATTCCGGTCTCCC
DNA 2: TGGTGGCTACGACGGGATT
B7: GAACCCU (DNA:RNA)
RNA: B2 RNA with A25G, U26A, G28C, U29C, A31U
DNA 1: CAATCTGAATTCCGGTCTCCC
DNA 2: TGGTGGCTACGACGGGATT
B8: GGGUCAC (DNA:RNA)
RNA: B1 RNA with A26G, A29C
DNA 1: CAATCTGAATTCCGGTCTCCC
DNA 2: TGGTGGCTACGACGGGATT
B9: UCGGUUG (DNA:RNA)
RNA: B2 RNA with A25U, U26C, A27G, C30U, A31G
DNA 1: CAATCTGAATTCCGGTCTCCC
DNA 2: TGGTGGCTACGACGGGATT
B10: GUUACGU (DNA:RNA)
RNA: B2 RNA with A25G, A27U, G28A, U29C, C30G, A31U
DNA 1: CAATCTGAATTCCGGTCTCCC
DNA 2: TGGTGGCTACGACGGGATT
B11: GCCUACU (DNA:RNA)
RNA: B1 RNA with A26C, G27C, A30C, C31U
DNA 1: CAATCTGAATTCCGGTCTCCC
DNA 2: TGGTGGCTACGACGGGATT
B12: CAGACGC (DNA:RNA)
RNA: B1 RNA with G25C, U28A, A29C, A30G
DNA 1: CAATCTGAATTCCGGTCTCCC
DNA 2: TGGTGGCTACGACGGGATT
B13: CAAAAAC (DNA:RNA)
RNA: B1 RNA with G25C, G27A, U28A
DNA 1: CAATCTGAATTCCGGTCTCCC
DNA 2: TGGTGGCTACGACGGGATT
B14: AAGCACA (DNA:RNA)
RNA: B2 RNA with U26A, A27G, G28C, U29A
DNA 1: CAATCTGAATTCCGGTCTCCC
DNA 2: TGGTGGCTACGACGGGATT
B15: UGUGUCG (DNA:RNA)
RNA: B2 RNA with A25U, U26G, A27U, A31G
DNA 1: CAATCTGAATTCCGGTCTCCC
DNA 2: TGGTGGCTACGACGGGATT
B16: ACACCCU (DNA:RNA)
RNA: B2 RNA with U26C, G28C, U29C, A31U
DNA 1: CAATCTGAATTCCGGTCTCCC
DNA 2: TGGTGGCTACGACGGGATT
B17: ACUUCCG (DNA:RNA)
RNA: B2 RNA with U26C, A27U, G28U, U29C, A31G
DNA 1: CAATCTGAATTCCGGTCTCCC
DNA 2: TGGTGGCTACGACGGGATT
B18: UCCGUCU (DNA:RNA)
RNA: B2 RNA with A25U, U26C, A27C, A31U
DNA 1: CAATCTGAATTCCGGTCTCCC
DNA 2: TGGTGGCTACGACGGGATT
B19: CUCGAUG (DNA:RNA)
RNA: B2 RNA with A25C, A27C, U29A, C30U, A31G
DNA 1: CAATCTGAATTCCGGTCTCCC
DNA 2: TGGTGGCTACGACGGGATT
B20: AAUAGUC (DNA:RNA)
RNA: B1 RNA with G25A, G27U, U28A, A29G, A30U
DNA 1: CAATCTGAATTCCGGTCTCCC
DNA 2: TGGTGGCTACGACGGGATT

target: T1, RBFOX1 RRM (Homo sapiens, UniProt Q9NWB1 109-208); test: EMSA; HiTS-Eq, 1 nM pool, 10 min; buffer printed only for the single-RNA assays: 10 mM Tris pH 7.5, 150 mM NaCl, 3.4 mM EDTA, 0.001% NP-40, 30 C; conditions: tags: His6 N-terminal (pET28a); label: 5' 32P
T1 sequence: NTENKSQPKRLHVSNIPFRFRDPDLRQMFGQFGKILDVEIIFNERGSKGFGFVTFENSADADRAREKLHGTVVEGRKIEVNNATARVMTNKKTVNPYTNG
How it was run: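 A pool of RNA with 7 randomized nucleotides, 5′-radiolabelled and with DNA-annealed flanks, was equilibrated at 1 nM for 10 min in 50 µL with purified RbFox RRM, wild type or mutant, across increasing protein concentrations. Free RNA was separated by 8% native PAGE, excised, reverse-transcribed, barcoded by PCR and sequenced. Relative association constants were obtained from read-count changes of each RNA species versus the control reaction and normalised to the cognate motif.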

In order of rising binding signal:
1. B13  0.00139 KA relative to UGCAUGU
2. B6  0.00197 KA relative to UGCAUGU
3. B2  0.00256 KA relative to UGCAUGU
4. B16  0.00292 KA relative to UGCAUGU
5. B3  0.0036 KA relative to UGCAUGU
6. B12  0.00366 KA relative to UGCAUGU
7. B7  0.00371 KA relative to UGCAUGU
8. B14  0.0054 KA relative to UGCAUGU
9. B11  0.00598 KA relative to UGCAUGU
10. B17  0.00599 KA relative to UGCAUGU
11. B20  0.00816 KA relative to UGCAUGU
12. B4  0.00925 KA relative to UGCAUGU
13. B1  0.00976 KA relative to UGCAUGU
14. B10  0.01 KA relative to UGCAUGU
15. B5  0.012 KA relative to UGCAUGU
16. B19  0.0129 KA relative to UGCAUGU
17. B18  0.0154 KA relative to UGCAUGU
18. B8  0.0219 KA relative to UGCAUGU
19. B15  0.024 KA relative to UGCAUGU
20. B9  0.0277 KA relative to UGCAUGU
